{
  "source": "the RNAGym collection of RNA variant scans (doi:10.1093/nar/gkz1192)",
  "parents": {"B1": {"name": "CPEB3 Ribozyme (parent)", "chain": "UAACAGGGGGCCACAGCAGAAGCGUUCACGUCGCAGCCCCUGUCAGAUUCUGGUGAAUCUGCGAAUUCUGCUGUAUAUCUC"}},
  "note": "Read counts are not given, so values of variants with three or more changes are uncertain.",
  "data": [
    {"variants_of": "B1", "assay": "self-cleavage, relative activity (ratio to wild type); higher = more cleavage; in vitro, sequencing", "outline": "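CPEB3 self-cleaving ribozyme mutant libraries were made by rounds of error-prone PCR, barcoded, and transcribed in vitro with T7 RNA polymerase for 5 hours at 37°C. Cleavage occurred during transcription and a 15 min DNase I step before EDTA stop. RNAs were reverse transcribed with template switching and Illumina-sequenced, with DNA sequencing mapping barcodes to variants. Relative activity is the variant's cleaved/total read fraction divided by wild type's (minimum 5 reads), averaged across three batches.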", "values": [
      {"variant": "A35G U72A U76A", "self-cleavage": 1.21},
      {"variant": "A35G U72G A77C", "self-cleavage": 1.22},
      {"variant": "A35U A45C C81G", "self-cleavage": 0.2},
      {"variant": "A35U A45G A56U A57U", "self-cleavage": 0.32},
      {"variant": "A35U A45G A56U A64U", "self-cleavage": 0.11},
      {"variant": "A35U A45G A57G U60A", "self-cleavage": 0.12},
      {"variant": "A35U A45G U48A U54C", "self-cleavage": 0.17},
      {"variant": "A35U A45G U48C U60A", "self-cleavage": 0.12},
      {"variant": "A35U A45G U51A A64U", "self-cleavage": 0.15},
      {"variant": "A35U A45G U51C A56U U80C", "self-cleavage": 0.13},
      {"variant": "A35U A45G U51C U54C U72G", "self-cleavage": 0.13},
      {"variant": "A35U A45G U66C U78C", "self-cleavage": 0.07},
      {"variant": "A35U A45G U67C", "self-cleavage": 0.49},
      {"variant": "A35U A45G U69A", "self-cleavage": 0.13},
      {"variant": "A35U A45U A47G", "self-cleavage": 0.12},
      {"variant": "A35U A45U U54C U58G A64U", "self-cleavage": 0.06},
      {"variant": "A35U A45U U60C A65U U67C U80A", "self-cleavage": 0.09},
      {"variant": "A35U A47G G52U U60G", "self-cleavage": 0.11},
      {"variant": "A35U A47G U48G", "self-cleavage": 0.2},
      {"variant": "A35U A47G U49A U51C", "self-cleavage": 0.16},
      {"variant": "A35U A47G U49C U51C U67C", "self-cleavage": 0.1},
      {"variant": "A35U A47G U51A U54C A56U", "self-cleavage": 0.16},
      {"variant": "A35U A47G U51C U60C", "self-cleavage": 0.16},
      {"variant": "A35U A47G U60C A64G", "self-cleavage": 0.13},
      {"variant": "A35U A47G U67A U72C U80C", "self-cleavage": 0.1},
      {"variant": "A35U A47G U69A U74C U78A", "self-cleavage": 0.22},
      {"variant": "A35U A47G U80A", "self-cleavage": 0.65},
      {"variant": "A35U A47G U80C", "self-cleavage": 0.66},
      {"variant": "A35U A47U U54C", "self-cleavage": 0.38},
      {"variant": "A35U A47U U60C", "self-cleavage": 0.15},
      {"variant": "A35U A47U U60C U72A", "self-cleavage": 0.08},
      {"variant": "A35U A56G A65U U69C", "self-cleavage": 0.12},
      {"variant": "A35U A56G U69C A77G U78C", "self-cleavage": 0.09},
      {"variant": "A35U A56U U60C U72G U76C", "self-cleavage": 0.1},
      {"variant": "A35U A56U U78C", "self-cleavage": 0.41},
      {"variant": "A35U A57G A64G", "self-cleavage": 0.34},
      {"variant": "A35U A57G C59U", "self-cleavage": 0.3},
      {"variant": "A35U A57G C68A U69C", "self-cleavage": 0.11},
      {"variant": "A35U A57G U58A", "self-cleavage": 0.15},
      {"variant": "A35U A57G U60A C71A U74A", "self-cleavage": 0.07},
      {"variant": "A35U A57G U69A", "self-cleavage": 0.18},
      {"variant": "A35U A64C U80C", "self-cleavage": 0.23},
      {"variant": "A35U A64G U72C U74A U76C", "self-cleavage": 0.28},
      {"variant": "A35U A64G U76C", "self-cleavage": 0.3},
      {"variant": "A35U A64G U80C", "self-cleavage": 0.33},
      {"variant": "A35U A64U U66C", "self-cleavage": 0.15},
      {"variant": "A35U A64U U72C U76C", "self-cleavage": 0.09},
      {"variant": "A35U A65G U74C", "self-cleavage": 0.22},
      {"variant": "A35U A65U U69A", "self-cleavage": 0.1},
      {"variant": "A35U A65U U72A", "self-cleavage": 0.1},
      {"variant": "A35U A65U U80C", "self-cleavage": 0.42},
      {"variant": "A35U C37U A45G A47G U48C U49C A65G", "self-cleavage": 0.08},
      {"variant": "A35U C37U U67C G73U", "self-cleavage": 0.04},
      {"variant": "A35U C38A U54C", "self-cleavage": 0.14},
      {"variant": "A35U C38U A47G U48C G63U", "self-cleavage": 0.08},
      {"variant": "A35U C38U A56G", "self-cleavage": 0.19},
      {"variant": "A35U C39A A47C A57G", "self-cleavage": 0.14},
      {"variant": "A35U C39A G46A", "self-cleavage": 0.11},
      {"variant": "A35U C39U U43C A56G C71G U78C C81U", "self-cleavage": 0.04},
      {"variant": "A35U C39U U51C", "self-cleavage": 0.47},
      {"variant": "A35U C39U U69A U72A", "self-cleavage": 0.05},
      {"variant": "A35U C40A A64G", "self-cleavage": 0.21},
      {"variant": "A35U C40A U66C U69G", "self-cleavage": 0.12},
      {"variant": "A35U C40U A64U A75U U78C", "self-cleavage": 0.05},
      {"variant": "A35U C50A U72C", "self-cleavage": 0.3},
      {"variant": "A35U C62G U78C", "self-cleavage": 0.04},
      {"variant": "A35U C62U A64G", "self-cleavage": 0.17},
      {"variant": "A35U G36A A64G", "self-cleavage": 0.14},
      {"variant": "A35U G36A C38U A45G", "self-cleavage": 0.09},
      {"variant": "A35U G42A G53A", "self-cleavage": 0.45},
      {"variant": "A35U G42A U51C U54C", "self-cleavage": 0.13},
      {"variant": "A35U G46C A64G", "self-cleavage": 0.14},
      {"variant": "A35U G46U U51C", "self-cleavage": 0.13},
      {"variant": "A35U G52C C59A", "self-cleavage": 0.16},
      {"variant": "A35U G53C U69A U80C", "self-cleavage": 0.47},
      {"variant": "A35U G55U A64G U67C A77U U80C", "self-cleavage": 0.08},
      {"variant": "A35U G63A U66A", "self-cleavage": 0.48},
      {"variant": "A35U U41A A47G U54C", "self-cleavage": 0.07},
      {"variant": "A35U U41A A56C", "self-cleavage": 0.34},
      {"variant": "A35U U41A A65G U69C U78A", "self-cleavage": 0.19},
      {"variant": "A35U U41A G52A A65G U80C", "self-cleavage": 0.15},
      {"variant": "A35U U41A U43A", "self-cleavage": 0.16},
      {"variant": "A35U U41A U54A", "self-cleavage": 0.18},
      {"variant": "A35U U41A U67A U72C", "self-cleavage": 0.16}
    ]}
  ]
}
